In all, about 50,000 compounds went through this assay and about 800 (1.6%) showed an effect of 50% or more. This is one part of the list.
molecular target: Bcl-2-like protein 10 (Homo sapiens) (UniProt Q9HD36); assay: Phenotype converters, Bcl-B/TR3 peptide binding displacement, primary biochemical FP (AID 1240); details: GST-Bcl-B / FITC-TR3 peptide fluorescence polarization; stronger effect = higher value; compound at 3.75 mg/L;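 note: 0% = Bcl-B with tracer peptide and DMSO and 100% = tracer peptide lacking Bcl-B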
UniProt Q9HD36, sequence (Q9HD36 whole entry, looked up): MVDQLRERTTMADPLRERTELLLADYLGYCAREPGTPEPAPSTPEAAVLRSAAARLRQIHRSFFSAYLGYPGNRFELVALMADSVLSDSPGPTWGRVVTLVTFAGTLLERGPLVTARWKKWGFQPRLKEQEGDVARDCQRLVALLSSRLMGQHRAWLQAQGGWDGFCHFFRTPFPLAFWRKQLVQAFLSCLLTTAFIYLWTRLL

SMILES | displacement [%]
CSC1=C(C#N)C(c2ccccc2)C=C(c2ccccc2)N1 (stereo not drawn) | 13.5
Cc1onc(-c2c(Cl)cccc2Cl)c1C(=O)n1c(C)nc2ccccc21 | -4.2
O=C1CC(c2ccc(Cl)cc2)CN1C(=O)Nc1ccccc1 (stereo not drawn) | 4.8
CCCOc1ccc(/C=C2\SC(=S)N(NC(=O)c3ccccc3Cl)C2=O)cc1OC | 41.4
CCc1ccccc1NC(=O)c1c(NC(=O)c2cccs2)sc2c1CCCC2 | -9.2
Cc1ccc2c(c1)C(C)CC(C)(C)N2C(=O)Nc1ccccc1 (stereo not drawn) | -0.4
Cc1nn(C2CCCCC2)c(N)c1-c1ccccc1 | -10.1
Cc1ccccc1/C=C(/C#N)c1nc(-c2cc3ccccc3oc2=O)cs1 | 4.7
COc1ccc(Cl)cc1C(=O)Nc1ccccc1F | -5.7
CC(C)(C)C1CCC2(CC1)NNC(=S)NN2 | 13.2
O=C(Nc1ccc(I)cc1Cl)c1ccc2ccccc2c1 | 3.4
CCCc1cc(=O)oc2cc(OC(C)C(C)=O)ccc12 (stereo not drawn) | -0.7
c1coc(CN2CCN(Cc3cccc4ccccc34)CC2)c1 | -4.4
COc1ccc2oc(=O)c(C(=O)Nc3cccc(Cl)c3)cc2c1 | 16.4
Cc1ccc(C(=O)NC(NC(=S)Nc2ccccc2)C(Cl)(Cl)Cl)cc1 (stereo not drawn) | 10.8
CCc1nccn1S(=O)(=O)c1cc(Cl)ccc1Br | 9.1
CCOC(=O)c1cnc2cc(OC)ccc2c1Cl | -4.4
Cc1cn(S(=O)(=O)c2ccc(Br)cc2)cn1 | 7.7
COc1ccc(OC)c(NC(=O)CN(c2ccc(C)cc2)S(=O)(=O)c2ccc(F)cc2)c1 | -4.9
O=C(CCc1ccccc1)NCCOc1ccccc1 | 12.8
COc1ccccc1N1CCN(C2CC(=O)N(c3ccc(F)cc3)C2=O)CC1 (stereo not drawn) | -7.9
CCOc1ccc(C(=O)Nc2ccc3nn(-c4ccc(OC)cc4)nc3c2)cc1Cl | 10.5
Cc1cc2nc(-c3ccc(C)c(NC(=O)/C=C/c4ccco4)c3)oc2cc1C | -5.3
O=C1C(Nc2ccccc2)=CC(c2ccc(Cl)cc2)N1c1ccccc1 (stereo not drawn) | -32
O=C(NC1C2CC3CC(C2)CC1C3)c1ccccc1F (stereo not drawn) | 4.9

SMILES | displacement [%]
O=c1/c(=C\c2cc(Cl)c(O)c(Cl)c2)sc2nc3ccccc3n12 | 12.6
Cn1ccnc1SCC(=O)c1ccc(-c2ccccc2)cc1 | -0.3
COc1cccc(C2CC(=O)Nc3c2ccc2ccccc32)c1OC (stereo not drawn) | -3.3
O=C(COc1ccccc1Cl)NNC(=O)c1ccccn1 | -13
Cc1ccccc1N=C(NOCc1ccccc1)c1nonc1N | 15
O=c1nc(/C=C/c2ccc(-c3ccc([N+](=O)[O-])cc3Cl)o2)cc(C(F)(F)F)[nH]1 | 11.9
COC(=O)c1coc(-c2ccc(OC)cc2)c1C(=O)OC | -3.9
O=C(c1ccc([N+](=O)[O-])cc1)N1CCSC1c1ccccc1Cl (stereo not drawn) | -0.9
COC(=O)C1=C(C)N=c2s/c(=C\c3ccc4c(c3)OCO4)c(=O)n2C1/C=C/c1ccccc1 (stereo not drawn) | 27.3
CCOC(=O)c1sc(NC(=O)c2nn3c(c2Cl)NC(c2cccs2)CC3C(F)(F)F)c(C(=O)OCC)c1C (stereo not drawn) | 8.1
O=C(COc1ccc(Cl)cc1)Nc1ccc(Cl)cc1 | 15
COC(=O)C1=C(C)NC2=C(C(=O)c3ccccc32)C1c1cc(OC)c(OC)c(OC)c1 (stereo not drawn) | 2.8
COc1ccc(C)cc1NC(=O)C1C2C=CC(O2)C1C(=O)O (stereo not drawn) | 2.3
COC(=O)c1ccc(C2Nc3ccccc3NC3=C2C(=O)CC(C)(C)C3)cc1 (stereo not drawn) | 0.6
Cc1c(F)cccc1NC(=O)C(Cc1c[nH]c2ccccc12)NC(=O)OCC(C)C (stereo not drawn) | 2.2
COCCNCCOc1c(Cl)cccc1Cl | -10.6
O=C(Nc1ccc(F)c([N+](=O)[O-])c1)c1cnccn1 | -5.1
COc1ccc2oc(C(Cl)(Cl)Cl)cc(=O)c2c1 | 14.1
c1ccc(Oc2cccc(CN3CCN(Cc4ccccn4)CC3)c2)cc1 | 0.6
C/C(=N/N=C1\NC(=O)C(C)S1)c1ccc(Cl)cc1 (stereo not drawn) | 13.1
COc1ccc(N2C(=O)/C(=C/c3ccc(Br)o3)SC2=S)cc1 | 17.5
Cc1ccc2oc(C(=O)Nc3ccc(F)cc3)c(C)c2c1 | -5.8
CCOc1cc(OCC)cc(C(=O)Nc2c(C)cccc2C)c1 | 10
Cc1ccc(C(=O)Nc2ccccc2C(=O)N2CCCCC2C)cc1 (stereo not drawn) | -9.4
C=CCn1nc(C)c(Cc2c(C)nn(CC=C)c2C)c1C | -4.4

SMILES | displacement [%]
O=C1CCCC2=C1C(c1ccc(OCc3ccccc3)cc1)Nc1ccc3ncccc3c12 (stereo not drawn) | 3.4
CCOc1ccc2nc(NC(=O)c3ccccc3C(=O)O)sc2c1 | -7
O=C(COC(=O)C1CCCN1C(=O)Oc1ccccc1)c1ccccc1 (stereo not drawn) | -8.4
CN=C(Nc1ccccc1OC)SC1CC(=O)N(c2ccc(C(=O)OC)cc2)C1=O (stereo not drawn) | -7.4
NC(=O)c1ccc(NC(=O)C23CC4CC(CC(C4)C2)C3)cc1 | -2.3
Cc1ccsc1/C=C1\SC(N2CCN(C)CC2)=NC1=O | 3
Cc1ccc2ncnc(Nc3ccc(I)cc3)c2c1 | 13.4
CCOc1cc(/C=N/n2cnnc2)cc(Br)c1OCCOc1ccc(C(C)CC)cc1 (stereo not drawn) | -1.3
O=C(O)c1ccc(-c2cc(Cl)ccc2Cl)o1 | -8.3
Cc1cc(NC(=O)c2ccc(Br)o2)no1 | 1.6
Cc1cc(N2CCN(c3ccccc3)CC2)nc(-c2ccccc2O)n1 | 34.8
CCCCN(CCCC)S(=O)(=O)c1ccc(C)cc1 | -6.8
COc1ccc(CC(=O)NNC(=O)c2cccc(Cl)c2)cc1OC | -3.1
CC(=O)Nc1ccc(Nc2nc3ccccc3nc2Nc2ccc(NC(C)=O)cc2)cc1 | -13.4
O=C(NCc1ccccc1)C(=O)Nc1cccc2ccccc12 | 13.5
C/C(=N/O)C(O)C12CC3CC(CC(C3)C1)C2 (stereo not drawn) | 16.6
O=C(O)c1cccc(N2C(=O)CC(Nc3ccc(N4CCOCC4)cc3)C2=O)c1 (stereo not drawn) | 47.9
O=C(O)COc1ccccc1C=C1C(=O)NC(=O)N(c2ccccc2F)C1=O | 4.3
COC(=O)C(=Cc1cc(Br)c(OCc2ccc([N+](=O)[O-])cc2)c(OC)c1)C(=O)OC | 13.2
CC(=O)Nc1nnc(-c2ccccc2)o1 | -1.2
COc1ccc(Br)cc1/C=C/C(=O)Nc1cccc(NC(=O)c2ccccc2Cl)c1 | -7.7
CCSc1nnc(NC(=O)C(CC)c2ccccc2)s1 (stereo not drawn) | 3.9
COC(=O)c1c(/N=C/N(C)C)ncn1-c1ccccc1OC | -4.7

From PubChem BioAssay AID1240 (Sanford-Burnham Center for Chemical Genomics, 2008)
